{"source": "the RNAGym collection of RNA variant scans (doi:10.1093/nar/gkz1192)", "parents": {"B1": {"name": "CPEB3 Ribozyme (parent)", "chain": "UAACAGGGGGCCACAGCAGAAGCGUUCACGUCGCAGCCCCUGUCAGAUUCUGGUGAAUCUGCGAAUUCUGCUGUAUAUCUC"}}, "note": "The source gives no read counts; variants with many changes may rest on few reads.", "data": [{"variants_of": "B1", "experiment": "self-cleavage, relative activity (ratio to wild type); higher = more cleavage; in vitro, sequencing", "summary_of_the_method": "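Relative activity was defined as the cleaved/total read fraction for a variant divided by the same fraction for the unmutated ribozyme. CPEB3 self-cleaving ribozyme libraries were made by rounds of error-prone PCR, barcoded, and transcribed in vitro with T7 RNA polymerase for 5 hours at 37°C, and cleavage ran through transcription plus a 15 min DNase I step before EDTA. Illumina sequencing of template-switched reverse transcripts gave the reads, and DNA sequencing mapped the barcodes. Averages come from three batches, using variants with at least 5 reads.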", "values": [{"variant": "UAACGGGGGGCCACAGCAGAAGCGUUCACGUCGCAGCCCCUGUCAGAUUCUGGUGAAUCUGCGAAUUCUGCUGCAUAUCCC", "note": "[A5G U74C U80C]", "self-cleavage": 1.07}, {"variant": "UAACGGGGGGCCACAGCAGAAGCGUUCACGUCGCAGCCCCUGUCAGAUUCUGGUGAAUCUGCGAAUUCUGCUGUAUACCAC", "note": "[A5G U78C U80A]", "self-cleavage": 1.06}, {"variant": "UAACUGGGGGCCCCAGCGGAAGCGUUCACGUCGCAGCCCCUGUCAGAUUCUGGCGAAUCUGCGAAUUCUGCUGUAUAUCUC", "note": "[A5U A13C A18G U54C]", "self-cleavage": 1.07}, {"variant": "UAACUGGGGGCCCCAGCAGAAGCGUCCACGUCGCAGCCCCUGUCAGAUUCUGGUGAAUCUGCGAAUUCCGCAGUAUAUCUC", "note": "[A5U A13C U26C U69C U72A]", "self-cleavage": 0.15}, {"variant": "UAACUGGGGGCCGCUGCAGAAGCGUUCACGUCGCAGCCCCUGUCAGAUUCUGGUGAACCUGCGGAUUCUGCUGUAUAUCUC", "note": "[A5U A13G A15U U58C A64G]", "self-cleavage": 0.11}, {"variant": "UAACUGGGGGCCGCAGCUGAAGCGUUCACGUCGCAGCCCCUGUCAGAUUCUGGUGAAUCUGCGAAUUCUGCUGUAUAUCUC", "note": "[A5U A13G A18U]", "self-cleavage": 0.47}, {"variant": "UAACUGGGGGCCGCAGCAGGAGCGUUCACGUCGCAGCCCCUGUCAGAUUCUGGUGAAUCUGCGAAUUCUGCUGUAUAUCUC", "note": "[A5U A13G A20G]", "self-cleavage": 0.82}, {"variant": "UAACUGGGGGCCGCAGCAGGAGCGUUCACGUCGCAGCCCCUGUCGGAUUCUGGUGAAUCUGCGAAUUCUGCUGUAUAUCUC", "note": "[A5U A13G A20G A45G]", "self-cleavage": 0.59}, {"variant": "UAACUGGGGGCCGCAGCAGGAGCGUUCACGUCACAGCCCCUGUCAGAUUCUGGUGUAUCUGCGAAUGCUGCUGUAUGUCUC", "note": "[A5U A13G A20G G33A A56U U67G A77G]", "self-cleavage": 0.06}, {"variant": "UAACUGGGGGCCGCAGCAGGAGCGUUCACGUCGCAGCCCCUGUCAGAUUCUGGUGAAUCUGCGAAUUCUGCUGUAUAUCCC", "note": "[A5U A13G A20G U80C]", "self-cleavage": 0.75}, {"variant": "UAACUGGGGGCCGCAGCAGAAGCGUUCGCGUCGCAGCCCCUGUCAGAUUCUGGCGAACUUGCGAACUCUGCUGUAUAUCUC", "note": "[A5U A13G A28G U54C U58C C59U U66C]", "self-cleavage": 0.08}, {"variant": "UAACUGGGGGCCGCAGCAGAAGCGUUCACGUCGCGGCCCCUGUCAGAUUCUGGUGAAUCUGCGAAUUCUGCUGUAUAUCUC", "note": "[A5U A13G A35G]", "self-cleavage": 0.66}, {"variant": "UAACUGGGGGCCGCAGCAGAAGCGUUCACGUCGCAGCCCCUGUCAGAUUCUGGUGUAUCUGCGAAUUCUGCGGUACUUCUC", "note": "[A5U A13G A56U U72G U76C A77U]", "self-cleavage": 0.26}, {"variant": "UAACUGGGGGCCGCAGCAGAAGCGUUCACGUCGCAGCCCCUGUCAGAUUCUGGUGAAUCUGCGAAUUCUGCUGUAUGUCUC", "note": "[A5U A13G A77G]", "self-cleavage": 1.09}, {"variant": "UAACUGGGGGCCGCAGGUGAAGCGCCCACGUCGCAGCCCCUGUCAGAUUCUGGUGAAUCUGCGAAUUCUGCUGUAUAUCUC", "note": "[A5U A13G C17G A18U U25C U26C]", "self-cleavage": 0.45}, {"variant": "UAACUGGGGGCCGCAGCAGAAGCGUUCAUGUCGCAGCCCCUGUCAGAUUCUUGUGAAUCUGCGAAUUCUGCUGUAUAUCUC", "note": "[A5U A13G C29U G52U]", "self-cleavage": 0.29}, {"variant": "UAACUGGGGGCCGCAGCAGAAGCGCCCACGUCGCAGCCCCUGUCAGAUUCUGGUGAAUCUGCGAAUUCUGCUGUAUAUUUC", "note": "[A5U A13G U25C U26C C79U]", "self-cleavage": 0.71}, {"variant": "UAACUGGGGGCCGCAGCAGAAGCGUUCACGCCGCAGCCCCUGUCAGAUUCUGGUGAAUCUGCGAAUUCUGCUGUAUAUCUC", "note": "[A5U A13G U31C]", "self-cleavage": 0.67}, {"variant": "UAACUGGGGGCCGCAGCAGAAGCGUUCACGCCGCAGCCCCUGUCAGAUCCUGGUCAAUCUGCGGAUUCUGCAGUAUAUCUC", "note": "[A5U A13G U31C U49C G55C A64G U72A]", "self-cleavage": 0.16}, {"variant": "UAACUGGGGGCCGCAGCAGAAGCGUUCACGUCGCAGCCCCGGUCAGAAUCUGGUGAAUCUGCGAAUUCUGCCGUAUAUCUC", "note": "[A5U A13G U41G U48A U72C]", "self-cleavage": 0.62}, {"variant": "UAACUGGGGGCCGCAGCAGAAGCGUUCACGUCGCAGCCCCUGUCAGAUUCUGGUGAACCUGCGAAUUCUGCCGUAUAUCUC", "note": "[A5U A13G U58C U72C]", "self-cleavage": 0.19}, {"variant": "UAACUGGGGGCCGCAGCAGAAGCGUUCACGUCGCAGCCCCUGUCAGAUUCUGGUGAAUCUGCGAACUCUGCUGUAUAUCUC", "note": "[A5U A13G U66C]", "self-cleavage": 0.36}, {"variant": "UAACUGGGGGCCUCGGCAGAAGCGCUCACGUCGCUGCCCCUGUCAGAUUCUGGUGAAUCAGCGAAUUCUGCUGUAUAUCUC", "note": "[A5U A13U A15G U25C A35U U60A]", "self-cleavage": 0.12}, {"variant": "UAACUGGGGGCCUCAGCGGAAGCGUUCACGUCGCAGCCCCUGUCAGAUUCUGGUGAAUCUGCGAAUUCUGCUGUUUAUCUC", "note": "[A5U A13U A18G A75U]", "self-cleavage": 1.11}, {"variant": "UAACUGGGGGCCUCAGCGGAAGCGUUCACGUCGCAGCCCCUGUCAGACUCUGGUGAGUCUACGAAUUCUGCUGUAUAUCUC", "note": "[A5U A13U A18G U48C A57G G61A]", "self-cleavage": 0.38}, {"variant": "UAACUGGGGGCCUCAGCUGAAGCGUUCACGUCGCAGCCCCUGCCAGAUUCCGGUGAAUCUGCGAAUUCUGCUGUAUACCUC", "note": "[A5U A13U A18U U43C U51C U78C]", "self-cleavage": 0.22}, {"variant": "UAACUGGGGGCCUCAGCAGGGGCGUUCGCGUCGCAGCCCCUGUCAGAUUCUGGUGAAUCUGCGAAUUCUGCCGUAUAUCUC", "note": "[A5U A13U A20G A21G A28G U72C]", "self-cleavage": 0.43}, {"variant": "UAACUGGGGGCCUCAGCAGGAGCGUCCACGUCGCAGCCCCUGUCAGAUUCUGGUGAAUCUGCGAAUUCUGCUGUAUAUCUC", "note": "[A5U A13U A20G U26C]", "self-cleavage": 0.29}, {"variant": "UAACUGGGGGCCUCAGCAGUUGUGUUCAUGUCGCAGCCCCUGUCUGAUUCUGGUGAAUCUGCGAAUUCUGCUGUAUAUCUC", "note": "[A5U A13U A20U A21U C23U C29U A45U]", "self-cleavage": 0.14}, {"variant": "UAACUGGGGGCCUCAGCAGAAGCGUUUACGGCGCAGCCCCUGCCAGAUUCAGGUGAAUCUGCGAAUUCUGCUGUAUUUCUC", "note": "[A5U A13U C27U U31G U43C U51A A77U]", "self-cleavage": 0.13}, {"variant": "UAACUGGGGGCCUCAGCAGAAGCGUUCACGUUGCUGCCCCUGUCAGAUACUGGUGAAUCUGCGAAUUCUGCUGUAUAUCUC", "note": "[A5U A13U C32U A35U U49A]", "self-cleavage": 0.17}, {"variant": "UAACUGGGGGCCUCAGCAGAAGCGUUCACGUCGCAGACCCUGUCAGAUUCUGGUGAAUCUGCGAAUUCUGCUAUAUAUCCC", "note": "[A5U A13U C37A G73A U80C]", "self-cleavage": 0.65}, {"variant": "UAACUGGGGGCCUCAGCAGAAGCGCUCACGUCGCAGCCCCUGUCGGAUUCUGGUGAAUCUGCGAACUCUGCUGUAUAUCUC", "note": "[A5U A13U U25C A45G U66C]", "self-cleavage": 0.48}, {"variant": "UAACUGGGGGCCUCAGCAGAAGCGCUCACGUCGCAGCCCCUGUCAGAUUCUGGUGAAUCUGCGGAUUCUGCUGUAUAUCUC", "note": "[A5U A13U U25C A64G]", "self-cleavage": 0.11}]}]}
